Experimental data: the supplement of paper PMC8728848
Some of the results follow.

Legend:
Test in all cases: glycan array binding signal (z-score within array); higher = stronger binding
Conditions in all cases: glycan notation: IUPAC condensed, linker removed
[1] = biological target: Fuc(a1-2)[GalNAc(a1-3)]Gal(b1-4)GlcNAc
How it was run: (§1)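 Columns mapping to the same glycan were averaged after glycan names were converted to IUPAC-condensed notation. The data come from 3228 arrays in the Consortium for Functional Glycomics database, limited to those with an available protein sequence. Binding is reported as a within-array Z-score averaged across arrays of one protein sequence and across linkers.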

[2] = biological target: Fuc(a1-2)[GalNAc(a1-3)]Gal(b1-4)[Fuc(a1-3)]GlcNAc
How it was run: as §1

[3] = biological target: Fuc(a1-2)[GalNAc(a1-4)]Gal(b1-4)GlcNAc
How it was run: as §1

[4] = biological target: Fuc(a1-2)[GalNAc(b1-3)]Gal
How it was run: as §1

[5] = biological target: Fuc(a1-3)GlcNAc
How it was run: as §1

[6] = biological target: Fuc(a1-3)[Gal(b1-4)]Glc6S
How it was run: as §1

[7] = biological target: Fuc(a1-3)[Gal(b1-4)]GlcNAc
How it was run: as §1

[8] = biological target: Fuc(a1-3)[Gal(b1-4)]GlcNAc(b1-2)Man(a1-3)[Fuc(a1-3)[Gal(b1-4)]GlcNAc(b1-2)Man(a1-6)]Man(b1-4)GlcNAc(b1-4)GlcNAc
How it was run: as §1

[9] = biological target: Fuc(a1-3)[Gal(b1-4)]GlcNAc(b1-2)Man(a1-6)[Gal(b1-4)GlcNAc(b1-2)Man(a1-3)]Man(b1-4)GlcNAc(b1-4)GlcNAc
How it was run: as §1

[10] = biological target: Fuc(a1-3)[Gal(b1-4)]GlcNAc(b1-3)Gal(b1-3)[Fuc(a1-4)]GlcNAc
How it was run: as §1

[11] = biological target: Fuc(a1-3)[Gal(b1-4)]GlcNAc(b1-4)Gal(b1-4)[Fuc(a1-3)]GlcNAc
How it was run: as §1

[12] = biological target: Fuc(a1-3)[Gal(b1-4)]GlcNAc(b1-4)Gal(b1-4)[Fuc(a1-3)]GlcNAc(b1-4)Gal(b1-4)[Fuc(a1-3)]GlcNAc
How it was run: as §1

[13] = biological target: Fuc(a1-3)[Gal(b1-4)]GlcNAc6S
How it was run: as §1

[14] = biological target: Fuc(a1-3)[Gal3S(b1-4)]Glc6S
How it was run: as §1

[15] = biological target: Fuc(a1-3)[Gal3S(b1-4)]GlcNAc
How it was run: as §1

[16] = biological target: Fuc(a1-3)[Gal3S(b1-4)]GlcNAc6S
How it was run: as §1

[17] = biological target: Fuc(a1-3)[GalNAc(b1-4)]GlcNAc
How it was run: as §1

[18] = biological target: Fuc(a1-4)GlcNAc
How it was run: as §1

[19] = biological target: Fuc(b1-3)GlcNAc
How it was run: as §1

[20] = biological target: Gal(a1-2)Gal
How it was run: as §1

[21] = biological target: Gal(a1-3)Gal
How it was run: as §1

[22] = biological target: Gal(a1-3)Gal(b1-3)GlcNAc
How it was run: as §1

[23] = biological target: Gal(a1-3)Gal(b1-4)Glc
How it was run: as §1

[24] = biological target: Gal(a1-3)Gal(b1-4)GlcNAc
How it was run: as §1

[25] = biological target: Gal(a1-3)Gal(b1-4)[Fuc(a1-3)]GlcNAc
How it was run: as §1

[26] = biological target: Gal(a1-3)GalNAc
How it was run: as §1

[27] = biological target: Gal(a1-3)[Gal(a1-4)]Gal(b1-4)GlcNAc
How it was run: as §1

[28] = biological target: Gal(a1-4)Gal(b1-4)Glc
How it was run: as §1

[29] = biological target: Gal(a1-4)Gal(b1-4)GlcNAc
How it was run: as §1

[30] = biological target: Gal(a1-4)GlcNAc
How it was run: as §1

B1: P-Selectin (Mus musculus), Q01102 (protein)
chain: MAGCPKGSWTPRLRSVILGGAQLIWFSALISELVNQKEVAAWTYNYSTKAYSWNNSRVFCRRHFTDLVAIQNKNEIAHLNDVIPFFNSYYWIGIRKINNKWTWVGTNKTLTEEAENWADNEPNNKKNNQDCVEIYIKSNSAPGKWNDEPCFKRKRALCYTASCQDMSCSNQGECIETIGSYTCSCYPGFYGPECEYVKECGKVNIPQHVLMNCSHPLGEFSFNSQCTFSCAEGYELDGPGELQCLASGIWTNNPPKCDAVQCQSLEAPPHGTMACMHPIAAFAYDSSCKFECQPGYRARGSNTLHCTGSGQWSEPLPTCEAIACEPPEIPIHGSMDCVPSTGTFGYNSSCTFLCAEGFVLKGNDAIQCADSGQWTAPAPFCEALQCPEFPVPSKAQVNCSDPFGTLTYQSVCSFSCDEGSLLVGASVIRCLATGHWNGAPPECQAVSCAPMLSPENGSMTCVQPLGNSTYKSTCQFMCDEGFYLSGPERLDCSPSGHWTGTPPTCEAIKCPGIFAPEQGNLDCSHVHGEFGVGSICHFSCNEDFELLGSENVECTVSGRWSAPPPTCKGITSLPAPAVRCPALTTPGQGTMSCQHHLGSFGPNTTCYFGCKTGFTLRGANSLRCRASGQWTAVTPMCRAVKCSELHMDTAVAMNCSNPWGNFSYGSTCTFQCPEGQSLNGSVRATCREDGHWSDAMPTCQAGTLTIQEALTYLGGAVASTTGLAVGGTLLALLRKRLRKKDDGKCPLNPHSHLGTYGVFTNAAYDPTP
- glycan array binding signal (z-score) [1]: -0.287
- glycan array binding signal (z-score) [2]: 2.73
- glycan array binding signal (z-score) [3]: -0.542
- glycan array binding signal (z-score) [4]: -0.633
- glycan array binding signal (z-score) [5]: -0.465
- glycan array binding signal (z-score) [6]: 3.04
- glycan array binding signal (z-score) [7]: -0.027
- glycan array binding signal (z-score) [8]: -0.257
- glycan array binding signal (z-score) [9]: -0.509
- glycan array binding signal (z-score) [10]: -0.183
- glycan array binding signal (z-score) [11]: 0.48
- glycan array binding signal (z-score) [12]: 0.16
- glycan array binding signal (z-score) [13]: 2.1
- glycan array binding signal (z-score) [14]: 3.7
- glycan array binding signal (z-score) [15]: 2.17
- glycan array binding signal (z-score) [16]: 3.95
- glycan array binding signal (z-score) [17]: 0.12
- glycan array binding signal (z-score) [18]: -0.553
- glycan array binding signal (z-score) [19]: -0.63
- glycan array binding signal (z-score) [20]: -0.719
- glycan array binding signal (z-score) [21]: -0.535
- glycan array binding signal (z-score) [22]: -0.649
- glycan array binding signal (z-score) [23]: -0.705
- glycan array binding signal (z-score) [24]: -0.157
- glycan array binding signal (z-score) [25]: 0.313
- glycan array binding signal (z-score) [26]: -0.445
- glycan array binding signal (z-score) [27]: -0.678
- glycan array binding signal (z-score) [28]: -0.228
- glycan array binding signal (z-score) [29]: -0.235
- glycan array binding signal (z-score) [30]: -0.463
